Laboratory results as given in ChEMBL document CHEMBL4888484, “Replenishing the malaria drug discovery pipeline: Screening and hit evaluation of the MMV Hit Generation Library 1 (HGL1) against asexual blood stage Plasmodium falciparum ,using a nano luciferase reporter read-out” (2022).
Screen size: about 150,000 compounds; about 540 (0.36%) showed an effect of 50% or more. The list shows a part of the results.

tested on: Plasmodium falciparum; assay: Primary screen in NF54 nanoGlo assay, in single point, at 2uM, 72h; a lower Z score goes with more inhibition; format: functional, Erythrocyte; conditions: timepoint 72 hour

Row | Structure (SMILES) | % Inhibition [%] | Z score
1 | CC1(C)CCC(C(=O)NC2CCC23CCCC3)O1 (centres undefined) | 2 | -0.37
2 | NC(=O)c1c(NC(=O)CN2CCCCCC2)sc2c1CCCC2 | -11 | 2.12
3 | Cn1c(COc2cccc3ccccc23)c(C#N)c2ccccc21 | -40 | 4.75
4 | CC[C@@H]1Oc2ccc(Cl)cc2N(CC(=O)Nc2ccc3sc(NC(C)=O)nc3c2)C1=O | -7 | 0.87
5 | Cc1ccc(C)n1CC(=O)Nc1ncn[nH]1 | 2 | -0.3
6 | O=C(C[C@H]1CCOC1)NCCCC1CCCC1 | -12 | 2.28
7 | Cn1cnc2c1CCN(C[C@H](O)c1ccccc1F)C2 | -4 | 0.59
8 | COCCCNC(=O)[C@@H]1CC2(CCN(C(=O)c3ccc(C)cc3C)CC2)C(=O)N1C | 7 | -0.81
9 | CCc1ccccc1S(=O)(=O)N1CCC[C@](CC2CC2)(C(N)=O)C1 | -8 | 1.03
10 | COc1cc(N(CC(N)=O)S(C)(=O)=O)c(OC)cc1Cl | -8 | 1.12
11 | CN1CCN(c2ccc(NC[C@]3(c4ccc(F)cc4)CCOC3)cc2)C1=O | 4 | -0.59
12 | Cc1csc(=O)n1CCCC(=O)Nc1nc(-c2ccc(F)cc2Cl)cs1 | 4 | -0.5
13 | C[C@@H](CN=C(N)N1CCOCC1)COCc1ccccc1 | 0 | 0.05
14 | Cn1c(=O)n(C)c2c1ccn1cnnc21 | 7 | -0.93
15 | COc1ccc2c(c1)CCCC21NC(=O)N(CC(O)COc2cc(Cl)ccc2Cl)C1=O (centres undefined) | 7 | -1.28
16 | CN(C)Cc1ccccc1CN(C)c1cc([C@H]2CCOC2)nc(N)n1 | 3 | -0.39
17 | CCCS(=O)(=O)NCc1cncc(-c2ccsc2)c1 | -13 | 2.01
18 | Cc1cc(C(=O)N2CCC(NC(=O)c3ccncc3)CC2)c(C)o1 | -7 | 1.09
19 | O=C(Nc1cccc2ncccc12)c1ccc(-n2cccn2)nc1 | 6 | -0.71
20 | Cc1ccc(-c2cc(C(=O)NCc3cccnc3)c(C)o2)cc1 | 5 | -0.54
21 | O=C(CN1CCCN(C(=O)c2cc(Cl)c(Cl)[nH]2)CC1)N1CCCC1 | -6 | 0.8
22 | O=C1[C@H]2CN(Cc3cc(F)cc(F)c3)C[C@H]2C(=O)N1Cc1ccc2c(c1)OCO2 | -5 | 0.62

Row | Structure (SMILES) | % Inhibition [%] | Z score
23 | CN(c1ccccc1)c1nnc(-c2ccc(NC(=O)c3ccco3)cc2)s1 | -8 | 1.1
24 | O=S1(=O)CCCC(NS(=O)(=O)[C@H]2C[C@@H]2c2ccccc2)C1 (some centres undefined) | 0 | 0
25 | Cc1cnn(CC(=O)NC2(c3noc([C@H]4CCOC4)n3)CCCCCC2)c1 | -4 | 0.74
26 | CC(C)c1nnc(N2CCC3(CCC(=O)N(CCN(C)C)C3)CC2)s1 | 0 | -0.06
27 | CCOC1CC(NC(=O)NCCN(C)C2CC2)C12CCC2 (centres undefined) | 0 | 0.06
28 | O=C1C[C@]2(C(=O)Nc3ccc(F)cc32)c2cnn(Cc3ccc(Cl)cc3)c2N1 | 33 | -3.76
29 | COc1ccnc(CNC(=O)NCc2ccc(S(C)(=O)=O)s2)c1F | 14 | -1.75
30 | CC(C)=CCN=C(N)N1CCC[C@H](C)C1 | -9 | 1.18
31 | C[C@@H](C(=O)N1CCn2cnnc2C1)N(C(=O)OC(C)(C)C)C1CC1 | 5 | -0.6
32 | Cc1nc(N2CCC(c3ncc[nH]3)CC2)c2ccsc2n1 | -9 | 1.45
33 | CCC(C)C(=O)NCC(=O)NC1C(C)CCCC1C (centres undefined) | 10 | -1.49
34 | CC(C)N1CCN(C[C@]2(O)CCCN(CC3CCCCC3)C2=O)CC1 | 0 | -0.03
35 | C[C@@H](c1nnc(-c2cccs2)o1)N(C)CCOc1ccc(O)cc1 | -11 | 1.42
36 | CC[C@H](C)N(C/C=C/c1ccccc1)Cc1cnc(C)cn1 | -13 | 1.42
37 | CC[C@H](C)Oc1ccccc1CN1CCn2nc(C#N)cc2C1 | -9 | 0.88
38 | CCOC(=O)C1(NCC(=O)NC(=O)NC(C)(C)C)CCCCC1 | -10 | 1.16
39 | CCc1ccc(CN2CCN(C(=O)c3coc(-c4ccccc4)n3)CC2)s1 | -4 | 0.63
40 | COc1cccc(CN2C(=O)c3cc(C4CC4)nn3C[C@@]2(C)C(=O)NC2CCCCCC2)c1OC | 0 | -0.06
41 | CCc1cnc(N)nc1N[C@@H](CO)Cc1ccccc1 | -13 | 1.99
42 | CCOc1ccc(NC(=O)c2cc3c(s2)CCC3)cc1S(=O)(=O)N1CCCCC1 | -12 | 2.03
43 | COc1ccc(CN2CCCn3cccc3[C@H]2c2ccc(C)c(C)c2)cc1 | -11 | 1.33
44 | CC(C)C1OCCC1c1nc(-c2cccs2)no1 (centres undefined) | 8 | -1.1

Row | Structure (SMILES) | % Inhibition [%] | Z score
45 | CCNS(=O)(=O)CCNC(=O)[C@H](C)c1ccc(Cl)s1 | -3 | 0.22
46 | O=C(CCn1cnnc1)N1CCC2(CC1)c1ccccc1C[C@@H]2O | 17 | -2.19
47 | Cn1c2c(c(=O)n(C)c1=O)C(=O)C(=O)N(Cc1ccccc1)C2=O | -6 | 0.63
48 | Cc1cc(C(=O)N2CC[C@H](CO)C2)ns1 | -13 | 1.78
49 | CCNC(=O)N1CCN(c2nc(C)nc(C)c2Cc2ccccc2F)CC1 | -7 | 0.91
50 | C=CCNC(=O)CN1CCCN(CC(=O)NCC=C)c2ccccc21 | 2 | -0.16
51 | Cc1nc2cc(NC(=O)c3ccccc3-c3ccccc3)ccc2o1 | -11 | 1.45
52 | COC(=O)C1(NC(=O)OC(C)(C)C)CC(CN2CCN(C)CC2)C1 (centres undefined) | 10 | -2.05
53 | CNS(=O)(=O)C1CCN(C(=O)C(C)Cc2ccc(Cl)cc2)C1 (centres undefined) | -4 | 0.66
54 | COc1ccc(C(=O)N2CC[C@H](N(CCN3CCOCC3)S(C)(=O)=O)C2)c(C)c1 | -8 | 1.15
55 | O=C(CC(F)(F)F)N1CC[C@H](Oc2cnc3ccccc3n2)C1 | 1 | -0.11
56 | CN(CC1(CO)CCC1)c1ccc(C(N)=O)cn1 | 0 | 0.05
57 | O=C(N[C@H]1CCN(c2cccc(OC(F)(F)F)c2)C1)C1(O)CCCC1 | -13 | 1.73
58 | COCCCN(C)S(=O)(=O)c1c(Cl)cccc1C(F)(F)F | 2 | -0.17
59 | Cc1cnn(CCNCc2ccco2)c1 | -12 | 1.21
60 | O=C(NC1CC1C1CCCCC1)N1CCCN(C2CCOCC2)CC1 (centres undefined) | -16 | 1.42
61 | CN=C(NCCC1=CCCCC1)NCc1nnc2n1CCCCC2 | 0 | -0.06
62 | COC(=O)CC(C)(C)CC(=O)N(C)c1cnc2ccccc2c1 | -1 | 0.08
63 | COc1cccc(Cc2nc(-c3ccc(NS(=O)(=O)c4ccc(C)cc4)cc3)no2)c1 | 0 | 0.03
64 | CC(C(=O)Nc1nc(C2CC2)cs1)C(N)c1ccccc1 (centres undefined) | 3 | -0.41
65 | COCc1nc([C@@H]2CCCCCN2C(=O)Cc2cccc(OC)c2)no1 | -2 | 0.25
66 | Cc1cnc(Cn2cnc3c(nnn3C)c2=O)s1 | -5 | 0.68

Row | Structure (SMILES) | % Inhibition [%] | Z score
67 | CC(C)(C)NC(=O)CN1CC(C)(C)[C@@](C)(O)C1 | -9 | 1.36
68 | Cc1sc2c(c1C)C(=O)N[C@@H](c1ccncc1)N2 | -15 | 2.24
69 | Cc1ncsc1CN(C)C(C)C(=O)NCC1CCCO1 (centres undefined) | 15 | -2.78
70 | Cc1c(Br)cccc1S(=O)(=O)N1CCn2ccnc2C1 | -6 | 0.77
71 | CCC(=O)N(CCOC)Cc1c(-c2cccc(C)c2)noc1N1CCCC1 | -2 | 0.37
72 | COc1cccc(F)c1[C@H](C)NCCNC(=O)C(C)(C)C | -15 | 1.37
73 | O=C(NCc1cccc(-n2ccnc2)c1)NC[C@@H]1C[C@H](c2ccccc2)CO1 | -8 | 1.66
74 | Cc1nc2nc(C3CCCCC3)nn2c(C)c1CC(=O)N1CCc2ccccc2C1 | -2 | 0.21
75 | CCc1ccc(N2C(=O)c3cc(C(C)(C)C)nn3C[C@@]2(C)C(=O)NC2CCCCCC2)cc1 | -6 | 0.89
76 | CC(C)C(=O)N[C@@H](N1CCCCCC1)C(Cl)(Cl)Cl | -15 | 2.02
77 | CCC1=N[C@@H](NC(=N)N)Nc2cc(C)ccc21 | 0 | -0.06
78 | Cc1ccc(CN(C(=O)C2CCN(CCO)CC2)C2CCCC2)s1 | -1 | 0.19
79 | Cc1noc(COCC(=O)Nc2cc(-c3ccccc3C)nn2CCO)n1 | -1 | 0.12
80 | COC(=O)[C@@H](c1cc(F)c(F)c(F)c1)N(C)C(=O)c1cccn1C | 1 | -0.18
81 | O=c1c2ccccc2ncn1CCCn1ccnc1 | -29 | 2.64
82 | Cc1cccc2c(-c3cccc(C(N)=O)n3)c[nH]c12 | -6 | 1.19
83 | O=C(NC1CCCC1)N1CCC[C@H](Cn2cc(-c3ccncc3)nn2)C1 | 1 | -0.12
84 | C=CCOC[C@@H](O)CN(CCC(C)C)Cc1cccn1C | -1 | 0.2
85 | O=C(NCc1ccc(O)c(F)c1)c1snnc1C1CC1 | -2 | 0.21
86 | O=C(CCc1ccccc1)N1CCC[C@H](OCc2cccc(Cl)c2)C1 | 2 | -0.42
87 | Cc1ccc(C(=O)C2CCN(C(=O)c3cccc4cn[nH]c34)CC2)c(C)c1 | -15 | 2.03
